These results are taken from ChEMBL document CHEMBL4888484, “Replenishing the malaria drug discovery pipeline: Screening and hit evaluation of the MMV Hit Generation Library 1 (HGL1) against asexual blood stage Plasmodium falciparum ,using a nano luciferase reporter read-out” (2022).

SMILES strings stand for the structures. Screen size: about 150,000 compounds; about 540 (0.36%) showed an effect of 50% or more. The list shows a part of the results.

The subject of the experiment is Plasmodium falciparum. Description: Primary screen in NF54 nanoGlo assay, in single point, at 2uM, 72h; a lower Z score goes with more inhibition. It counts as functional, Erythrocyte. As to conditions: timepoint 72 hour.
One may read the % Inhibition as the change of the read-out against control, counted positive when it falls. For the compound `CC(C)c1nnc2n1CCN(C(=O)c1ccc3c(c1)N(C)CCO3)[C@H]2C`, the “% Inhibition” value is -14% and the Z score amounted to 1.55.

Take `CCC[C@H]1CN(c2ncccc2F)C[C@@H]1NC(=O)C1CCOCC1`: the “% Inhibition” value is listed as -7% and the Z score is 1.18.

With `COCCCNC(=O)Nc1c(C)cc(Br)cc1OC`, the “% Inhibition” value is -16% and the Z score came out at 3.16.

`O=C1C[C@@H](C(=O)Nc2ccc(F)c(F)c2)c2c(n(CCc3ccccc3)c(=O)[nH]c2=O)N1`: the “% Inhibition” value is listed as 30% and the Z score is listed as -3.41.

For the compound `CC1CCCC(OCC(=O)NCc2ccccc2O)C1` (centres undefined), the “% Inhibition” value is listed as -2% and the Z score was 0.37.

`O=C(Cc1ccccc1)n1nc(NCc2cccc(Cl)c2)nc1NCc1cccc(Cl)c1`: the “% Inhibition” value was 6% and the Z score was -0.8.

For the compound `Cc1nc(NCCNS(=O)(=O)c2cccs2)cc(-n2ccnc2C)n1`, the “% Inhibition” value turned out to be 7% and the Z score is -0.96.

Take `CCOC(=O)c1nc([C@H](CC(C)C)NC(=O)COC)n[nH]1`: the “% Inhibition” value was -33% and the Z score amounted to 3.87.

As to `CC1=NO[C@](C)(C(=O)N2CCC(CNC(=O)c3nc4ccccn4c3F)CC2)C1`, the “% Inhibition” value is given as 2% and the Z score is -0.19.

In the case of `CC(C)(C)C1CCC(CC(=O)NCc2n[nH]c(=O)[nH]2)CC1` (centres undefined), the “% Inhibition” value was -15% and the Z score is given as 1.69.

Take `COCCc1nc(-c2cnc(C3CC3)nc2)n(-c2ccc(F)cc2F)n1`: the “% Inhibition” value is reported as -11% and the Z score amounted to 1.36.

On to `Cc1cc(C)c(NC(=O)Cn2nc3c(Oc4cccc(C)c4C)nc4ccccc4n3c2=O)c(C)c1`, for which the “% Inhibition” value came out at 0% and the Z score was found to be 0.06.

As to `Cc1nn(C)c(C)c1NC(=O)CN1CCCCC1C(C)O` (centres undefined), the “% Inhibition” value is reported as -6% and the Z score came out at 0.78.

With `CN=C(NCc1ccccc1)N1CCCC1`, the “% Inhibition” value is recorded as -7% and the Z score came to 1.01.

As for `Cc1cc(NC(=O)N2CC(O)CC2c2ccccc2)nn1C1CCCCC1` (centres undefined), the “% Inhibition” value is listed as -4% and the Z score worked out at 0.76.

Consider `CC(C)C[C@@H](CN(C)C)NC(=O)c1ccc(-c2cc[nH]n2)s1`, for which the “% Inhibition” value is 0% and the Z score amounted to 0.04.

For `Cn1cncc1CC(=O)N[C@H]1COc2cccc(Cl)c21`, the “% Inhibition” value is reported as -8% and the Z score stood at 1.18.

On to `c1ccc(CCc2n[nH]c3c2CN(Cc2cccc4nonc24)CC3)cc1`, for which the “% Inhibition” value is listed as -1% and the Z score is 0.11.

For the compound `Cc1c(NC(=O)CN2CCN(S(=O)(=O)c3cccc(F)c3)CC2)c(=O)n(-c2ccccc2)n1C`, the “% Inhibition” value is listed as -7% and the Z score turned out to be 0.96.

Turning to `O=C(NCC#CCOc1cccc(C(F)(F)F)c1)c1ccco1`, the “% Inhibition” value is given as -11% and the Z score came to 2.28.

Turning to `CN1c2cc(C(=O)Nc3ccc(Cl)cc3)ccc2C(=O)N2CCCCC[C@H]21`, the “% Inhibition” value came out at 10% and the Z score is listed as -1.31.

`Cc1ccc2c(C(=O)N3CCC(N(C)C)CC3)cc(-c3cncnc3)nc2c1C`: the “% Inhibition” value is on record as 6% and the Z score is listed as -1.12.

`CCN(CC(=O)O)C(=O)Cc1cc(C)ccc1C`: the “% Inhibition” value is listed as -11% and the Z score turned out to be 1.

As for `O=C(Nc1ccc(N2CCCCCC2)cc1C(=O)O)c1ccc(Cl)cc1`, the “% Inhibition” value turned out to be 37% and the Z score is listed as -5.42.

Regarding `CNC(=O)c1ccc(C(=O)N2CCN(C(C)C)C(=O)C2)cn1`, the “% Inhibition” value is recorded as 11% and the Z score is -2.02.

Consider `COCCCn1nccc1-c1nc2ccc(F)cc2n1C`, for which the “% Inhibition” value stood at 0% and the Z score stood at 0.04.

In the case of `CN(Cc1ncon1)C(=O)[C@@H]1CCCN1c1ccccc1`, the “% Inhibition” value is listed as -8% and the Z score came out at 1.12.

For `CN(C(=O)c1cc2c(s1)CCC2)S(=O)(=O)Cc1ccccc1`, the “% Inhibition” value is -5% and the Z score is 0.47.

As for `O=C(CN1CCN(c2cnccn2)C[C@@H](O)C1)N1CCCCC1`, the “% Inhibition” value was -8% and the Z score worked out at 0.84.

Turning to `CC1(C)CCc2nnc(C3CCCC3)n2C1`, the “% Inhibition” value was -14% and the Z score stood at 2.61.

Regarding `CCOC(=O)C1=C(C(=O)OCC)SC(=C2C(=S)C(C)(C)N(C(=O)CN3C(=O)CCC3=O)c3ccc(OC)cc32)S1`, the “% Inhibition” value was -6% and the Z score is on record as 0.72.

`Cc1ccc(Cl)c(OC(=O)[C@H]2CCCN(C(=O)N(C)C)C2)c1`: the “% Inhibition” value is recorded as -7% and the Z score is listed as 0.98.

Take `CN1CCN(CCCN(C(=O)c2cc(C3CC3)[nH]n2)C2CCOCC2)CC1`: the “% Inhibition” value was -9% and the Z score came to 1.37.

In the case of `CCC(C(=O)NC1CCOC1c1ccc(Cl)c(F)c1)N(C)C` (centres undefined), the “% Inhibition” value is reported as -3% and the Z score stood at 0.33.

`CCS(=O)(=O)c1ccc(Cl)cc1C(=O)N(C)c1nccs1`: the “% Inhibition” value is recorded as -5% and the Z score is 0.54.

For `Cc1ccc(N2COc3cc4c(cc3C2)OCO4)cc1C`, the “% Inhibition” value is listed as -10% and the Z score turned out to be 1.51.

With `NC(=NCCCc1ccc(Cl)cc1)N1CCOCC1`, the “% Inhibition” value is on record as -13% and the Z score was 1.42.

With `CC(C)CC[C@](C)(O)CNc1ncnc2nc(N)ccc12`, the “% Inhibition” value was 4% and the Z score is -0.58.

With `CC1(C)CN(C(=O)c2cocn2)c2c(C(F)(F)F)cccc21`, the “% Inhibition” value stood at 3% and the Z score was -0.45.

Consider `O=C1C[C@H](C(=O)N(CCO)C2CC2)CN1CCOc1ccccc1Cl`, for which the “% Inhibition” value was -2% and the Z score is reported as 0.18.

As to `Cc1oc(-c2ccccc2NS(=O)(=O)c2cccc(F)c2)nc1CNC(=O)[C@@H]1CCCCN1C`, the “% Inhibition” value was -8% and the Z score was 0.93.

For the compound `Cc1cc2nccc(NC(=O)N[C@@H](C)c3ccnn3C)n2n1`, the “% Inhibition” value is reported as -3% and the Z score was 0.64.
